{
  "source": "patent US20180346523A1",
  "about": "(ALBERT EINSTEIN COLLEGE OF MEDICINE, published 2018)",
  "key": {"NLS-PpsR2-mVenus [1]": {"target": "T1, NLS-PpsR2-mVenus (Rhodopseudomonas palustris)", "T1 construct": "Localized to the nucleus of HeLa cells; also called NLS-PpsR2(C439S)-20aaLinker-mVenus; pCMV-160; not shown: mVenus, engineered yellow fluorescent protein", "T1 chain": "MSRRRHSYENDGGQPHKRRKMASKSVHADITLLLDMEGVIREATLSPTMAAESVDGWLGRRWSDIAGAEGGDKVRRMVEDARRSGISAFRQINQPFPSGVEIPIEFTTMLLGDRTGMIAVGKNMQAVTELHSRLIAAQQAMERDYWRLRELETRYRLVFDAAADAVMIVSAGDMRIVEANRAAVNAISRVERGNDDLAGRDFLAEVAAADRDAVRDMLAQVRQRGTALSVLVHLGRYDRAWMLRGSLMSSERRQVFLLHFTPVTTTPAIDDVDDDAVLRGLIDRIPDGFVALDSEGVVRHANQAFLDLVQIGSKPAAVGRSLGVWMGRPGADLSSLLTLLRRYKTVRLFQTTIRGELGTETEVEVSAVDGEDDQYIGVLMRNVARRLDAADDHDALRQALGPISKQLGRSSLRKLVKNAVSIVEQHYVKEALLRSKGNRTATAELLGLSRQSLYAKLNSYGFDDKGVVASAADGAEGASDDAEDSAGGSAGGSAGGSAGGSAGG", "experiment": "nuclear recruitment assay in HeLa cells, epifluorescence microscopy, darkness"}, "PpsR2-mVenus-CAAX": {"target": "T2, PpsR2-mVenus-CAAX (Rhodopseudomonas palustris)", "T2 construct": "also called PpsR2(C439S)-20aaLinker-mVenus-Kras4BCT; pKA-140; not shown: mVenus, engineered yellow fluorescent protein", "T2 chain": "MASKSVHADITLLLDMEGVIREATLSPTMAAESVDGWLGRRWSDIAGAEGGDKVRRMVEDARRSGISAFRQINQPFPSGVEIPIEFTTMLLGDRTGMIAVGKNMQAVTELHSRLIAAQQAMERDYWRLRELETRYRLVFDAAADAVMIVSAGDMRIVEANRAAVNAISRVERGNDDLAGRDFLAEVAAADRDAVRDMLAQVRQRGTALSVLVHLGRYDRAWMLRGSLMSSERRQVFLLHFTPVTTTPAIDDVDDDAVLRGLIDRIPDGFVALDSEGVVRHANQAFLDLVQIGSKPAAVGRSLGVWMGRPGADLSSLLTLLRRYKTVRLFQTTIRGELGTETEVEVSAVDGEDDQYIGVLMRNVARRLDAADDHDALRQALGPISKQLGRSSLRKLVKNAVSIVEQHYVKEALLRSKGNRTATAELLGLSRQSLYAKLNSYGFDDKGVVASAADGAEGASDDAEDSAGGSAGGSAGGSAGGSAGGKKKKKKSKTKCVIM", "experiment": "translocation assay in HeLa cells, 650 nm light after 740 nm light"}, "NLS-PpsR2-mVenus [2]": {"target": "T1, NLS-PpsR2-mVenus", "experiment": "nuclear recruitment assay in HeLa cells, epifluorescence microscopy, 740 nm light"}, "NLS-PpsR2-mVenus [3]": {"target": "T1, NLS-PpsR2-mVenus", "experiment": "nuclear recruitment assay in HeLa cells, 740 nm light against darkness"}},
  "data": [
    {"binder": "BphP1-mCherry (other, endogenous biliverdin chromophore of the HeLa cells, Expressed in the cytoplasm of HeLa cells; also called pKA-141; not shown: mCherry, engineered red fluorescent protein) [omitted - about 300 residues]FAQSQSELFVQRLEQRMIEAITREGDWRAAIFDTSQSILQPLHADGCALVYEDQIRTIGDVPSTQDVREIAGWLDRQPRAAVTSTASLGLDVPELAHLTRMASGVVAAPISDHRGEFLMWFRPERVHTVTWGGDPKKPFTMGDTPADLSPRRSFAKWHQVVEGTSDPWTAADLAAARTIGQTVADIVLQFRAVRTLIAREQYEQFSSQVHASMQPVLITDAEGRILLMNDSFRDMLPAGSPSAVHLDDLAGFFVESNDFLRNVAELIDHGRGWRGEVLLRGAGNRPLPLAVRADPVTRTEDQSLGFVLIFSDATDRRTADAARTRFQEGILASARPGVRLDSKSDLLHEKLLSALVENAQLAALEITYGVETGRIAELLEGVRQSMLRTAEVLGHLVQHAARTAGSDSSSNGSQNKKDSAGSAGSAG", "values": [
      {"measurement": "mCherry intensity ratio between the nucleus and cytoplasm, in darkness", "setting": "NLS-PpsR2-mVenus [1]", "value": "~0.5"},
      {"measurement": "fold higher initial rate of cytoplasmic signal recovery under 650 nm light against darkness", "setting": "PpsR2-mVenus-CAAX", "value": 1.6, "unit": "fold"},
      {"measurement": "mCherry nucleus/cytoplasm ratio, after 740 nm illumination", "setting": "NLS-PpsR2-mVenus [2]", "value": 1.8},
      {"measurement": "fold increase of the BphP1-mCherry signal in nuclei of illuminated cells", "setting": "NLS-PpsR2-mVenus [3]", "value": "~3.5", "unit": "fold"}
    ]}
  ]
}
